# According to PubChem BioAssay AID588855 (National Center for Advancing Translational Sciences (NCATS), 2011):
# Among all 410,000 compounds or so, about 5,000 (1.2%) were called active. Inconclusive means that the source gave no clear call. Such entries were picked first, then a sample of the others. Calls follow the shape of the dose curve; as a rule, active = well fitted inhibition curve with a large enough effect; inconclusive = small, poorly fitted or top-dose-only effect; inactive = no such curve, though single readings can be large or run the other way. A potency beside an inconclusive call is a rough fit, not a confirmed value.
# Test: qHTS for Inhibitors of TGF-b; also: nearly all actives have a fitted effect of over 65% in size
# Conditions: HepG2 CAGA-GFP TGF-b/SMAD3 reporter, GFP fluorescence, 18 h, TGF-beta stimulated, 500 pg/mL final; series mostly up to 46.1 µM; activity, negative = inhibition: at the top concentration
# Summary of the method: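 Read-out: total well GFP (ex488/em500-530) summed from mean per-cell fluorescence. Cells: HEPG2 CAGA-GFP, 1% FBS DMEM, 18 h at 37 degrees C with 500 pg/mL final TGF-beta. Unstimulated wells served as the full-inhibition control; stimulated DMSO wells = 0%.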
# % is scaled to controls: 0 for no effect and ±100 for the full control effect; potency is read from the fitted curve at half-maximal effect; tags tell the direction and shape of the fitted curve.
SMILES,Potency,"activity, negative = inhibition"
COc1ccccc1C(C)Nc1nc(-c2cccnc2)nc2ccccc12 (stereo not drawn),"inconclusive: 35.5 µM [inhibitor, single point]",
O=C(CN1CCN(c2ccccn2)CC1)N(c1ccccc1)c1ccc2ccccc2c1,"inconclusive: 8.91 µM [inhibitor, partial curve, poor fit]",
CC(C)(C)C(=O)NC(=S)NNC(=O)c1ccc(Cl)cc1Cl,"inconclusive: 11.2 µM [inhibitor, partial curve, poor fit]",
Clc1cccc(CNc2ccn3nc(-c4cccc(Cl)c4)cc3n2)c1,"inconclusive: 28.2 µM [inhibitor, single point]",
c1cn2c(NC3CCCCC3)c(-c3ccc(SC4CCCCC4)cc3)nc2cn1,active: 2.82 µM,
COc1ccc(-c2n[nH]c(=S)n2-c2ccccc2C)cc1OC,,inactive: 9.49%
COc1ccc(S(=O)(=O)Nc2cccc(-c3ccc(N4CCCCC4)nn3)c2)cc1F,"inconclusive: 35.5 µM [inhibitor, single point]",
CCOC(=O)c1c(CSc2ccccc2)n(C)c2cc(Br)c(O)c(CN(C)C)c12,"inconclusive: 11.2 µM [inhibitor, partial curve, poor fit]",
COc1ccc(-c2nc(S(=O)(=O)c3ccccc3)c(N3CCC(C)CC3)o2)cc1,"inconclusive: 35.5 µM [inhibitor, single point]",
CCCn1cnc2scc(-c3ccc(C)c(C)c3)c2c1=O,,inactive: 17.6%
COc1ccc(/C=N/Nc2nncc3ccccc23)c(OC)c1,,inactive: 0.756%
CN1C(=O)c2ccccc2Sc2ccc(NC(=O)N3CCN(c4ccc(F)cc4)CC3)cc21,"inconclusive: 5.01 µM [inhibitor, partial curve, poor fit]",
COc1ccccc1CCNC(=O)C(=O)NCC1OCCN1S(=O)(=O)c1ccc(OC)c(OC)c1 (stereo not drawn),,inactive: 8.27%
COc1ccc(-c2sc3ccc(OC)cc3c2C#Cc2cncn2C)cc1,"inconclusive: 15.8 µM [inhibitor, single point]",
CC(O)(CS(=O)(=O)Cc1ccccc1)C(=O)Nc1ccc(C(F)(F)F)cc1 (stereo not drawn),,inactive: 6.7%
Cc1ccc2[nH]cc(C(c3ccccc3)c3ccc(Cl)s3)c2c1 (stereo not drawn),"inconclusive: 15.8 µM [inhibitor, single point]",
COc1cc(/C=N/NC(=O)CC(=O)NC2CCCCC2)ccc1O,,inactive: -6.87%
CC(=O)C1C(c2ccc([N+](=O)[O-])cc2)c2c(noc2C)CC1(C)O (stereo not drawn),"inconclusive: 6.31 µM [inhibitor, single point]",
Cc1cc(C(=O)c2ccccc2)nc2ccccc12,"inconclusive: 35.5 µM [inhibitor, single point]",
CC(C)(C)OC(=O)N1CCC[C@H]1C(=O)Nc1ccc(Br)cc1,,inactive: 3.3%
Cc1cccc(C)c1NC(=O)CCCSc1nnc(-c2ccc(Cl)cc2)n1-c1ccccc1,"inconclusive: 35.5 µM [inhibitor, single point]",
Cc1ccc(NC(=O)N2CCCC2)cc1Cl,"inconclusive: 6.31 µM [inhibitor, single point]",
COc1ccccc1-c1nn(CCC(=O)Nc2ccccc2)c2nc(C)cc(C)c12,"inconclusive: 2.82 µM [inhibitor, single point]",

SMILES,Potency,"activity, negative = inhibition"
Cc1ccc(/C=N/NC(=O)Cc2cccs2)o1,"inconclusive: 8.91 µM [inhibitor, partial curve, poor fit]",
O=C(Nc1ccc(F)c(F)c1)C(c1ccccc1)N1Cc2ccccc2C1=O (stereo not drawn),"inconclusive: 35.5 µM [inhibitor, single point]",
CCC(C)[C@H]1CNC(=S)N1CCc1cccc2ccccc12 (stereo partly drawn),"inconclusive: 17.8 µM [inhibitor, single point]",
COc1ccc(OCC(=O)N/N=C\c2ccco2)cc1,"inconclusive: 0.447 µM [inhibitor, full curve, poor fit]",
Cn1c(O)c(/C=N/NC(=O)c2cc3ccccc3cc2O)c2ccccc21,"inconclusive: 11.2 µM [inhibitor, partial curve, poor fit]",
O=C(c1ccco1)c1coc2c1cc(O)c1ccccc12,"inconclusive: 22.4 µM [inhibitor, partial curve, poor fit]",
COc1ccc(-c2cc(C3CCN(c4cc(Cl)nc(N)n4)CC3)[nH]n2)cc1,"inconclusive: 11.2 µM [inhibitor, single point]",
CCOC(=O)c1c(C)[nH]c(C)c1S(=O)(=O)N1CCCC(C(=O)N2CCN(c3cccc(Cl)c3)CC2)C1 (stereo not drawn),"inconclusive: 28.2 µM [inhibitor, single point]",
O=c1cc(CN2CCN(C/C=C/c3ccccc3)CC2)c2cc(O)c(-c3ccccc3)cc2o1,,inactive: -2.4%
Cc1cnc(NC(=O)CSc2ncc(-c3ccccc3)n2Cc2ccco2)s1,"inconclusive: 17.8 µM [inhibitor, partial curve, poor fit]",
O=C(C1CCC(Cn2c(=O)c3sccc3n(Cc3ccccc3F)c2=O)CC1)N1CCOCC1 (stereo not drawn),,inactive: -0.375%
COc1cc(NC(=O)c2cc3c(=O)n(Cc4ccco4)ccc3nc2C)cc(OC)c1OC,,inactive: -0.281%
CCCCc1nc(SCC(=O)N2CCCCC2)c2c(=O)n(C)c(=O)n(C)c2n1,"inconclusive: 35.5 µM [inhibitor, single point]",
CN(C)c1ccc(C(=C2C=CC(=[N+](C)C)C=C2)c2ccc(N(C)C)cc2)cc1,"inconclusive: 3.55 µM [inhibitor, partial curve, poor fit]",
O=C1C2C3C=CC(C4CC34)C2C(=O)N1/N=C/c1ccc(-c2ccc(Cl)cc2[N+](=O)[O-])o1 (stereo not drawn),,inactive: -2.43%
Cc1ccc2c(c1)c1nnc(SCC(=O)N3CCCc4ccccc43)nc1n2CC(=O)O,,inactive: -0.454%
CCc1nc2c(OCCOc3ccc(F)cc3)cccn2c1N(C=O)Cc1ccccc1,,inactive: -16.3%
Cc1ccc(N(C)S(=O)(=O)c2cccc(C(=O)N(C)Cc3cnn(-c4ccccc4)c3)c2)cc1,"inconclusive: 11.2 µM [inhibitor, single point]",
Cc1ccc2c(c1)c(=O)c1ccccc1n2CCCC(=O)Nc1ccc(Cl)c(Cl)c1,"inconclusive: 3.98 µM [inhibitor, partial curve, poor fit]",
Cc1ccc2c(CN3CCN(Cc4ccccc4)CC3)cc(=O)oc2c1C,,inactive: 17.6%
CCOC(=O)c1ccc(N(CCC2CO2)S(=O)(=O)c2ccc(C)cc2)cc1 (stereo not drawn),,inactive: -11%
CC1CC2C3CCC4=CC(=O)C=CC4(C)[C@@]3(Cl)C(O)CC2(C)C1(O)C(=O)CO (stereo partly drawn),,inactive: 11.5%
Cc1ccc(OCCSCc2nnc(NC(=O)Nc3cccc(Cl)c3)s2)cc1,"inconclusive: 6.31 µM [inhibitor, single point]",

SMILES,Potency,"activity, negative = inhibition"
COc1ccc(NC(=O)c2ccccc2SC)cc1OC,,inactive: -0.99%
O=C(NCc1ccco1)c1ccc(S(=O)(=O)N2CCCc3ccccc32)cc1,"inconclusive: 31.6 µM [inhibitor, partial curve, poor fit]",
Cc1ccc(C#N)c(SCCN2CCCCC2)n1,,inactive: 0%
C/C=C/c1cccc(-c2nc(C(=O)NC3CCC3)cc3c2[C@@H](CCO)N(S(=O)C(C)(C)C)C3)c1 (stereo partly drawn),"inconclusive: 11.2 µM [inhibitor, partial curve, poor fit]",
CCN(CC)S(=O)(=O)c1ccc(NCc2ccccc2)nc1,,inactive: 12.9%
COc1ccc(C(CCN(Cc2ccc(OC)c(OC)c2)C(C)=O)C(C)C)cc1 (stereo not drawn),,inactive: -26.8%
Cc1cc(Nc2cccc(Br)c2)n2c(nc3ccccc32)c1C#N,"inconclusive: 3.16 µM [inhibitor, single point]",
Cc1ccc2[nH]c3c(NCc4ccccc4)ncnc3c2c1,"inconclusive: 10 µM [inhibitor, partial curve, poor fit]",
CCOc1cc(C(Nc2cc(C)ccn2)c2ccc3cccnc3c2O)ccc1OC (stereo not drawn),active: 0.794 µM,
CC(=O)c1ccc(S(=O)(=O)N2CCN(C(=O)c3cccc(S(=O)(=O)N4CC(C)OC(C)C4)c3)CC2)cc1 (stereo not drawn),,inactive: -9.35%
COc1ccccc1NC(=O)c1c(C)cc(C)nc1SCC(=O)Nc1ccc(C)cc1,"inconclusive: 11.2 µM [inhibitor, single point]",
O=C(c1ccc(CNS(=O)(=O)c2ccccc2)cc1)N1CCN(Cc2ccccc2)CC1,"inconclusive: 35.5 µM [inhibitor, partial curve, poor fit]",
Cc1ccc(N2CN(CCC3=CCCCC3)CNC2=S)cc1,"inconclusive: 10 µM [inhibitor, partial curve, poor fit]",
COc1ccc(/C=N/Nc2cc(C)nc3ccc(OC)cc23)c(OC)c1,active: 10 µM,
CCCCn1ccnc1C(=O)c1cccc(S(=O)(=O)N2c3ccccc3CC2C)c1 (stereo not drawn),"inconclusive: 35.5 µM [inhibitor, partial curve, poor fit]",
CO/N=C/c1ccc(Sc2ccccc2)c([N+](=O)[O-])c1,"inconclusive: 0.891 µM [inhibitor, full curve, poor fit]",
CCCCC(=O)NC(c1ccco1)c1cc(Cl)c2cccnc2c1O (stereo not drawn),"inconclusive: 8.91 µM [inhibitor, partial curve, poor fit]",
Cc1ccccc1C(=O)N/N=C/c1ccncc1,,inactive: 1.44%
CCN(CC)S(=O)(=O)c1cc([N+](=O)[O-])ccc1NNC(=O)Nc1ccc(Cl)c(Cl)c1,active: 7.08 µM,
CCCCNC(=O)Nc1ccc2c(c1)N(C)C(=O)c1ccccc1S2,"inconclusive: 35.5 µM [inhibitor, single point]",
O=[N+]([O-])c1cc(S(=O)(=O)NCCN2CCOCC2)ccc1Sc1nnnn1-c1ccccc1,"inconclusive: 35.5 µM [inhibitor, single point]",
Cc1ccc(NC(=O)COc2cccnc2[N+](=O)[O-])cc1S(=O)(=O)N1CCCCC1,"inconclusive: 2 µM [inhibitor, full curve, poor fit]",
